In PubChem BioAssay AID1745853 (National Center for Advancing Translational Sciences (NCATS), 2022):
Some of the results follow. These are further read-outs of the screen, such as a control signal, another cell line or another target. No call is given for them. Numbered stars: 1 amine (or outer) side, 2 acyl side, 3 side chain; on linkers, the order of the positions; unused ones are H or OH. Square brackets hold non-standard residues; d marks the D form. Peptide text beside a SMILES is read from it. * marks the point of attachment. ξ: configuration not given here. X9 = CCC(C)(N*)C(=O)C1CC[C@@H](C(=O)N[C@@H](Cc2ccccc2)C(=O)NCC(=O)O)N1; X8 = O=C([C@@H]1CC(O)CN1[*:1])[*:2]; aIle = CC[C@@H](C)[C@H](N)C(=O)O; Thr(3ξ) = CC(O)[C@H](N)C(=O)O; ξIva = CCC(C)(N)C(=O)O; Aib = CC(C)(N)C(=O)O

Columns and labels:
Test in all cases: Primary Screen for Target Class Profiling of Small Molecule Inhibitors of Methyltransferases
[1] = molecular target: Glycine N-methyltransferase (Homo sapiens) (UniProt Q14749); details: purified enzyme, MTase-Glo SAH luminescence; measured here: GNMT inhibition; at 40 µM; stronger effect = lower value
Outline: (§1)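 Each enzyme was assayed with SAM and its substrate. SAH formation detected by MTase-Glo luminescence; single-point 40 uM screen[…].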

[2] = molecular target: Guanidinoacetate N-methyltransferase (Homo sapiens) (UniProt Q14353); details: purified enzyme, MTase-Glo SAH luminescence; measured here: GAMT inhibition; at 40 µM; stronger effect = lower value
Outline: as §1

[3] = molecular target: Histamine N-methyltransferase (Homo sapiens) (UniProt P50135); details: purified enzyme, MTase-Glo SAH luminescence; measured here: HNMT inhibition; at 40 µM; stronger effect = lower value
Outline: as §1

[4] = molecular target: Nicotinamide N-methyltransferase (Homo sapiens) (UniProt P40261); details: purified enzyme, MTase-Glo SAH luminescence; measured here: NNMT inhibition; at 40 µM; stronger effect = lower value
Outline: as §1

[5] = molecular target: Phenylethanolamine N-methyltransferase (Homo sapiens) (UniProt P11086); details: purified enzyme, MTase-Glo SAH luminescence; measured here: PNMT inhibition; at 40 µM; stronger effect = lower value
Outline: as §1
% is scaled to controls: 0 for no effect and ±100 for the full control effect.

SMILES | activity change, negative = inhibition [1] | activity change, negative = inhibition [2] | activity change, negative = inhibition [3] | activity change, negative = inhibition [4] | activity change, negative = inhibition [5]
C#CCOc1ccc2c(c1)c(-c1ccc(C(C)C)cc1)nc(=O)n2C(C)C | -20.8% | -6.17% | 0.862% | -49% | -7.57%
COc1cc2nc(N3CCCC3)nc(NCCCCCN3CCCC3)c2cc1OC | -13.3% | 1.35% | -73.4% | -47.7% | -16.6%
COc1ccc2cc3n(c2c1)CC(C)(C(=O)NCC1CCCO1)N(Cc1ccc(Cl)cc1)C3=O (stereo not drawn) | 3.02% | 0% | 9.47% | 7.2% | 3.67%
Cc1cnc(C2CCNC2)n1Cc1ccccc1 (stereo not drawn) | -2.08% | 0.266% | -34.6% | -1.15% | -9.72%
NC(=O)c1cnccn1 | -2.42% | 1.78% | -2.7% | -11.9% | -0.769%
CC1CCCC(NC(=O)C2(C)Cn3c(nc4ccccc43)C(=O)N2Cc2ccccc2Cl)C1C (stereo not drawn) | 7.75% | 0% | 9.65% | 10.9% | 2.4%
CCCn1nc(CNC(=O)c2cc(F)ccc2F)c2ccccc21 | 12.3% | 2.22% | 10.4% | 1.11% | 9.59%
COCCN(C)C[C@H]1C[C@H](CO)CN(C(=O)c2cc3ccccc3s2)C1 | -6.12% | -11% | -4.47% | -16.3% | -10.5%
COCCn1c(C)cnc1CC1CCCN(S(=O)(=O)c2cccc(F)c2)C1 (stereo not drawn) | -3.83% | -4.58% | -2.4% | -12.3% | -3.82%
O=S(=O)(NCCc1noc(-c2ccccc2)n1)c1ccc(Cl)cc1 | -2.38% | -6.32% | -0.256% | -5.95% | -2.8%
Nc1nc(N)c(N=O)c(OCC2CCCCC2)n1 | -2.58% | 9.3% | 4.54% | -16.5% | -2.89%
CCCn1c(=O)c2ccc(C(=O)NC(C)CC)cc2n2c(=O)n(CC(=O)NCc3ccccc3)nc12 (stereo not drawn) | 3.36% | 0% | 5.69% | -0.477% | -3.5%
CCOCCCNC(=O)N1Cc2c(sc3c2CCCC3)-n2cccc2C1c1ccccc1 (stereo not drawn) | -6.93% | 3.77% | -6.83% | -16.2% | -1.17%
CC1(C(=O)NC2CCCCC2)Cn2c(cc3occc32)C(=O)N1Cc1cccc(Br)c1 (stereo not drawn) | 0.097% | 0% | 1.36% | -0.662% | 1.37%
CCCn1c(=O)c2ccc(C(=O)NC(C)CC)cc2n2c(=O)n(Cc3cc(C)ccc3C)nc12 (stereo not drawn) | -1.7% | 4.12% | 1.02% | -5.24% | -0.96%
CSCc1ccc(C(=O)N2CCN(c3ccc(C)cc3)C(=O)C2)o1 | -3.71% | -2.79% | -0.518% | 0.42% | 4.13%
CC[C@@H](C)[C@H](NC(=O)C(C)(C)NC(=O)[C@H](CCC(N)=O)NC(=O)C(C)(CC)NC(=O)[C@H](Cc1c[nH]c2ccccc12)NC(C)=O)C(=O)N[C@H](C(=O)NC(C)(C)C(=O)N[C@@H](CC(C)C)C(=O)NC(C)(C)C(=O)N1CCC[C@H]1C(=O)N[C@@H](CCC(N)=O)C(=O)NC(C)(C)C(=O)N1CC(O)C[C@H]1C(=O)NC(C)(CC)C(=O)C1CC[C@@H](C(=O)N[C@@H](Cc2ccccc2)C(=O)NCC(=O)O)N1)C(C)O (stereo partly drawn) (Ac-W[ξIva]Q[Aib][aIle][Thr(3ξ)][Aib]L[Aib]PQ[Aib][X8]-X9) | -7.71% | 1.08% | -0.422% | -3.5% | -7.57%
COCc1noc(CCNC(=O)C2CC3(CCNCC3)CN2)n1 (stereo not drawn) | 0.761% | -0.562% | 1.51% | 0.793% | 12.5%
O=C(c1ccco1)N1c2ccccc2CC1c1nnc(C2CCOCC2)o1 (stereo not drawn) | -0.86% | 4.02% | 1.66% | -2.58% | 15.3%
Cc1cc2ncc(-c3ccccc3)nc2cc1C | – | -24.6% | – | -33.8% | -22.4%
COc1ccc(CCNc2nc3c(S(=O)(=O)c4ccccc4)nnn3c3ccccc23)cc1OC | -30.2% | 0.719% | 9.16% | 6.93% | 2.36%
CC1=C[C@H](O)[C@H]2C(C)(C)CCC[C@]2(C)[C@@]1(O)CO | 3.33% | 4.94% | 12.2% | -7.57% | 6.88%
COCC1CN(C)CC12CCN(S(=O)(=O)Cc1ccc(F)cc1)CC2 (stereo not drawn) | -7.87% | -1.32% | -2.13% | -7.63% | 5.36%
COC(=O)c1c(CC=C(C)C)c(OC2OC(CO)C(O)C(O)C2O)c2ccccc2c1OC1OC(CO)C(O)C(O)C1O (stereo not drawn) | 2.87% | 5.55% | 3.23% | -8.98% | 6.92%
O=c1c2ccccc2n2c(=O)n(Cc3cccc(Cl)c3)nc2n1Cc1ccccc1 | 7.58% | 0.44% | 13% | 2.1% | 7.73%
CCS(=O)(=O)N1CCCCCCNC(=O)[C@@H]2C[C@@H](C(=O)N3CCc4ccccc4C3)C[C@@H]21 | -6% | -8.49% | -5.08% | -6.77% | -7.07%
O=C(O)C[C@@H]1CCN(C(=O)C2CCCC2)C[C@@H]1CCN1CCCCC1 | -3.33% | -4.82% | -1.08% | -5.66% | -5.22%
CC1CCCCC1NC(=O)C1(C)Cn2c(cc3occc32)C(=O)N1CCc1ccccc1 (stereo not drawn) | -3.28% | 0% | 0.042% | -1.6% | -1.77%
O=C(CCn1ccc2cc(S(=O)(=O)N3CCCCC3)ccc21)NCc1ccco1 | -4.25% | -0.889% | 0.933% | -4.22% | -1.78%
